Consider 55 compounds from ChEMBL document CHEMBL4888484, “Replenishing the malaria drug discovery pipeline: Screening and hit evaluation of the MMV Hit Generation Library 1 (HGL1) against asexual blood stage Plasmodium falciparum ,using a nano luciferase reporter read-out” (2022).

The experiment relates to Plasmodium falciparum. The experiment in a line: Primary screen in NF54 nanoGlo assay, in single point, at 2uM, 72h; a lower Z score goes with more inhibition. Conditions: timepoint 72 hour. It counts as functional, Erythrocyte.

Molecules are shown by their SMILES. Several values for one entry are separate records, joined by “and”; a condition that tells them apart may be missing. Identical values can stand only once. Screen size: about 150,000 compounds; about 540 (0.36%) showed an effect of 50% or more. Some of the results follow.

Turning to `O=C(Cc1cccc(F)c1)N[C@H]1CC12CC2`, the % Inhibition (usually the drop in the measured response relative to a control, in per cent) was -8% and the Z score was 0.77.

In the case of `CC1C(c2ccccc2)CCN1C(=O)Cn1ncn2nccc2c1=O` (centres undefined), the “% Inhibition” value is recorded as -13% and the Z score came out at 1.41.

Take `O=C1CS(=O)(=O)N(Cc2cc(C3CC3)no2)c2ccccc21`: the “% Inhibition” value is recorded as -7% and the Z score is 1.08.

As for `CC(C)CN(CCC(=O)NCCN1CCOCC1)c1nc(-c2ccccc2Cl)nc2ccccc12`, the “% Inhibition” value is given as -9% and the Z score is 1.23.

With `Cc1ccc(CN(C(=O)c2ccccc2C)c2cccc(CC(=O)NCCN3CCCC3)c2)cc1`, the “% Inhibition” value is reported as -9% and the Z score was determined as 1.17.

As for `Cc1cc(C)cc(CN2CCCn3nc(CNC(=O)C4CCC4)cc3C2)c1`, the “% Inhibition” value was -5% and the Z score was found to be 1.

Turning to `COCC1CN(Cc2cncs2)CC(C)O1` (centres undefined), the “% Inhibition” value is -2% and the Z score turned out to be 0.25.

`O=S(=O)(c1cn[nH]c1)N1CCC[C@H](c2nnc[nH]2)C1`: the “% Inhibition” value was found to be 9% and the Z score is listed as -1.21.

For `CC(C)N(CCc1nccs1)C(=O)Cc1cccc(O)c1`, the “% Inhibition” value was -8% and the Z score stood at 0.85.

In the case of `O=C(Nc1nnc(-c2cccs2)o1)C(c1ccccc1)c1ccccc1`, the “% Inhibition” value amounted to 0% and the Z score amounted to 0.03.

`CCOC1CN(C(=O)[C@@](C)(C#N)CC)C1`: the “% Inhibition” value stood at 6% and the Z score is listed as -1.05.

`CC[C@@H](C(=O)NCc1ccc2c(c1)OCO2)n1c(Cc2ccccc2)nc2cc(Cl)c(Cl)cc21`: the “% Inhibition” value is reported as -3% and the Z score came to 0.58.

Regarding `O=c1[nH]c2nonc2nc1Nc1cccc(Cl)c1`, the “% Inhibition” value is recorded as 7% and the Z score was -0.88.

For `O=C1C[C@@H](C(=O)N2CCC[C@H]2C(F)(F)F)NC(=O)N1`, the “% Inhibition” value is -7% and the Z score is recorded as 1.41.

For the compound `CC(C)(C)OC(=O)N1CCCC[C@H](NC(=O)Nc2ccc3c(c2)OCCO3)C1`, the “% Inhibition” value is recorded as 5% and the Z score is on record as -0.66.

For `C[C@@H](c1cccc(-c2nccn2Cc2ccoc2)c1)N(C)C`, the “% Inhibition” value was -8% and the Z score is on record as 1.03.

In the case of `CCc1cnc(CCNC(=O)N[C@@H](C)C(=O)N(C)C)s1`, the “% Inhibition” value is given as -12% and the Z score worked out at 1.58.

Take `COc1cc(C(=O)N2C[C@H](c3ccc(C)cc3)[C@@H](N(C)C)C2)ccn1`: the “% Inhibition” value was -8% and the Z score turned out to be 1.43.

In the case of `NS(=O)(=O)CCCCS(=O)(=O)N1Cc2ccccc2CO1`, the “% Inhibition” value is listed as -15% and the Z score came out at 1.9.

`C[C@@H]1COCCN(C(=O)c2csc(C3CC3)n2)C1`: the “% Inhibition” value is -1% and the Z score amounted to 0.15.

For `COC(=O)N(C)CC(=O)NCC1CCCC1`, the “% Inhibition” value is recorded as 10% and the Z score is reported as -1.31.

In the case of `CN(Cc1ccnn1C)c1nccn(C)c1=O`, the “% Inhibition” value was -4% and the Z score is reported as 0.56.

For the compound `Cn1c(CNc2cncc(-c3cccs3)n2)nnc1C1CC1`, the “% Inhibition” value is recorded as -9% and the Z score was 1.36.

As to `COCCc1n[nH]c([C@H](C)Oc2ccc(Cl)cc2C)n1`, the “% Inhibition” value is -5% and the Z score is given as 0.76.

Turning to `CC(NC(=O)c1cc(C#N)c[nH]1)C(O)c1ccc(F)c(F)c1` (centres undefined), the “% Inhibition” value is recorded as -5% and the Z score is 0.82.

`COc1ccc(N2CCN(CN3C(=O)C4(OCCO4)c4ccccc43)CC2)cc1`: the “% Inhibition” value is on record as -6% and the Z score is on record as 0.71.

On to `Cc1ncsc1CCc1nc(-c2ccc3[nH]cnc3c2)no1`, for which the “% Inhibition” value is reported as -8% and the Z score amounted to 1.44.

On to `CC1(C)[C@H](Cc2cc(CC3CCCCC3)on2)C[C@@H]1NC(=O)C1CCC1`, for which the “% Inhibition” value is listed as 25% and the Z score was -2.86.

Regarding `COc1ccc(C[C@@]2(CCC(=O)N3CCCCC3)CCC(=O)N2)cc1`, the “% Inhibition” value is reported as 4% and the Z score is reported as -0.58.

With `CS(=O)(=O)c1ccc2nc(NC(=O)c3cc4n(n3)CCCO4)sc2c1`, the “% Inhibition” value is listed as -12% and the Z score was determined as 1.87.

In the case of `CC1(C)CCc2nc(NC(=O)c3cnc4ccccc4n3)ncc2C1`, the “% Inhibition” value was -7% and the Z score was 0.83.

In the case of `C[C@H](Nc1ncnc2ccccc12)c1ccc(N2CCCS2(=O)=O)cc1`, the “% Inhibition” value was -12% and the Z score is on record as 2.06.

As to `O=C(C[C@H]1COCCN1C(=O)c1ccc2c(c1)OCO2)c1ccco1`, the “% Inhibition” value is listed as -3% and the Z score was determined as 0.49.

As for `COC(=O)[C@@H](NC(=O)c1cc(CCc2ccccc2)no1)C(C)C`, the “% Inhibition” value is 6% and the Z score is reported as -0.76.

In the case of `Cc1ccc2c(=O)c(C(=O)c3ccc(F)cc3)cn(Cc3ccccc3Cl)c2n1`, the “% Inhibition” value is listed as -2% and the Z score came to 0.19.

On to `NC(=O)C1CC2CCCCC2N1c1ncnc2scc(-c3ccccc3)c12` (centres undefined), for which the “% Inhibition” value is -7% and the Z score is given as 0.82.

As for `COc1ccnc(N2CC[C@@]3(O)CCN(CC(=O)N(C)C)C[C@H]3C2)n1`, the “% Inhibition” value is recorded as -11% and the Z score was determined as 1.88.

Take `Cc1cccc2c1CCN2C(=O)NCc1c(C)nn(C)c1C`: the “% Inhibition” value is -8% and the Z score was 0.85.

As for `O=C(NC[C@H](NC(=O)C1CC=CC1)C1CCCCC1)C1CC=CC1`, the “% Inhibition” value is given as -11% and the Z score is recorded as 1.14.

Turning to `COc1ccc(CCNC(=O)N(C)Cc2noc(C3CCCC3)n2)cc1`, the “% Inhibition” value is -26% and the Z score was 2.39.

As to `CC(C)c1nnc(NC(=O)c2cc(C(F)(F)F)c[nH]c2=O)s1`, the “% Inhibition” value is given as 2% and the Z score is -0.38.

`Cc1ccc(S(=O)(=O)N2CCC(N3CCN(CCO)CC3)CC2)cc1`: the “% Inhibition” value is given as -7% and the Z score was determined as 1.03.

With `CCCN(C(=O)c1cnnc(C)c1)C1CCN(c2cc(C)nc(C)n2)CC1`, the “% Inhibition” value was -8% and the Z score came to 1.

In the case of `CCN(CC)c1cc(CCC(=O)NCC(C)C)ccn1`, the “% Inhibition” value is on record as -3% and the Z score is given as 0.43.

For `CCc1nc(CNS(=O)(=O)c2ccc(-c3ccno3)o2)cs1`, the “% Inhibition” value worked out at 1% and the Z score is on record as -0.22.

`O=C(NCC1(CO)CCOCC1)Nc1ccnn1Cc1ccc(Cl)c(F)c1`: the “% Inhibition” value is reported as 6% and the Z score is given as -0.8.

Turning to `C[C@H]1CCCN(C(=O)c2cnc(OCC3CC3)cn2)CC1`, the “% Inhibition” value is listed as -17% and the Z score came to 2.18.

`Cc1nn(C)c2nc(NC[C@H]3CN(C)CCN3C)sc12`: the “% Inhibition” value is -3% and the Z score is given as 0.44.

For `CN(C)c1n[nH]c(NS(=O)(=O)CCc2cccc(F)c2)n1`, the “% Inhibition” value is -9% and the Z score amounted to 1.69.

Consider `CC1CCCC(OCC(=O)Nc2cnccn2)C1` (centres undefined), for which the “% Inhibition” value is -7% and the Z score is on record as 1.34.

For the compound `Cc1noc([C@H]2CCCN(C(=O)c3nc(C(C)C)n(-c4ccccc4F)n3)C2)n1`, the “% Inhibition” value came to 1% and the Z score is given as -0.08.

For the compound `Cc1csc(CCNC(=O)[C@H]2CCS(=O)(=O)C2)n1`, the “% Inhibition” value is listed as -17% and the Z score came out at 1.79.

For `O=C(c1cc2n(n1)CCN(Cc1ccc(Cl)cc1)C2=O)N1CCc2ccccc2C1`, the “% Inhibition” value is -13% and the Z score is recorded as 1.55.

In the case of `CN(Cc1csc(-c2ccccc2)n1)C(=O)[C@@H](N)Cc1c[nH]cn1`, the “% Inhibition” value is recorded as -10% and the Z score is given as 1.29.

Consider `Cc1ccc(NC(=O)C/C(N)=N/O)cc1`, for which, for the setting “2 µM”, the “% Inhibition” value was 0% and -2%.
